# PubChem BioAssay AID602310 (National Center for Advancing Translational Sciences (NCATS), 2012)
# About 310 (0.076%) of roughly 410,000 compounds were called active. Inconclusive means that the source gave no clear call. Such entries were picked first, then a sample of the others. Calls follow the shape of the dose curve; as a rule, active = well fitted curve in the direction sought with a large enough effect; inconclusive = small, poorly fitted or top-dose-only effect; inactive = flat fitted curve, though single readings scatter. A potency beside an inconclusive call is a rough fit, not a confirmed value.
# Biological target: DNA dC->dU-editing enzyme APOBEC-3G (Homo sapiens) (UniProt Q9HC16)
# Experiment: qHTS for Inhibitors of Vif-A3G Interactions: qHTS; also: nearly all actives have a fitted effect of over 60% in size
# Settings: HeLa A3G-eYFP + Vif (tagged APOBEC3G with the HIV-1 protein that degrades it), YFP fluorescence, overnight; series mostly up to 46.1 µM
# How it was run: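 HeLa cells stably expressing Vif and C-terminally eYFP-tagged A3G, seeded overnight at 37 deg C, then exposed to compound by pintool overnight at 37 deg C. Rise in yellow fluorescence (Ex 488/Em 500-530, Acumen) marks blocked Vif-driven A3G degradation.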
# Potency is read from the fitted curve at half-maximal effect; tags tell the direction and shape of the fitted curve.
# Chain of UniProt Q9HC16 (Q9HC16 whole entry, looked up): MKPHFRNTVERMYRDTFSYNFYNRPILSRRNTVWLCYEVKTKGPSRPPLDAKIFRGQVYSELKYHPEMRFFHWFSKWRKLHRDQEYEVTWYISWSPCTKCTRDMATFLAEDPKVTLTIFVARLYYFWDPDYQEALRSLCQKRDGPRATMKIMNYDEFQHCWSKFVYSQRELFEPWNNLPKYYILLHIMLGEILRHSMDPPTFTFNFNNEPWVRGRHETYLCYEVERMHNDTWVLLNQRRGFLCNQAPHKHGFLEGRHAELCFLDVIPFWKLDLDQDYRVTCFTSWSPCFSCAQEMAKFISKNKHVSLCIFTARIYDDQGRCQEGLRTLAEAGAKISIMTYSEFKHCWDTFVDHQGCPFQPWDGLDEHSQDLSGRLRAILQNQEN
row,SMILES,Potency
1,Cc1cccc(Nc2nnc(SCC(O)=C(C#N)c3nc4ccccc4[nH]3)s2)c1,"inconclusive: 17.8 µM [inhibitor, single point]"
2,CCOC(=O)Nc1ccc2nc(N3CCCCCC3)sc2c1,"inconclusive: 2.24 µM [inhibitor, partial curve, poor fit]"
3,CCSc1ncc(Cl)c(C(=O)Nc2sc3c(c2C(=O)NCc2cccnc2)CCCC3)n1,inactive
4,N#Cc1ccc(-c2ccco2)nc1SCC(=O)c1ccc(Cl)cc1,"inconclusive: 20 µM [inhibitor, single point]"
5,CC(=O)C1=C(C)OC(N)=C(C#N)C1c1cc([N+](=O)[O-])ccc1Cl (configuration not stated),"inconclusive: 15.8 µM [inhibitor, single point]"
6,CCCNC(=O)c1ccccc1NC(=O)c1ccc2c(c1)NC(=O)C(C)S2 (configuration not stated),"inconclusive: 4.47 µM [inhibitor, partial curve]"
7,O=C(c1cc(-c2ccncc2)nc2ccccc12)N1CCN(c2ccccn2)CC1,"inconclusive: 10 µM [inhibitor, partial curve]"
8,CCCCCCCCC(=O)N/N=C/c1cccc(Br)c1,inactive
9,Cc1cc(/C=N/NC(N)=S)c(C)n1-c1ccc(Br)cc1,"inconclusive: 20 µM [inhibitor, single point]"
10,Cc1ccc(-n2ncc(C(=O)Nc3cc(Cl)cc(Cl)c3)c2C2CCNCC2)cc1C,"inconclusive: 10 µM [inhibitor, partial curve]"
11,COCCNC(=O)C1(C)Cc2c(-c3ccc4c(c3)OCO4)ccnc2O1 (configuration not stated),"inconclusive: 7.08 µM [inhibitor, partial curve]"
12,COc1ccccc1/C=C1\C(=O)Nc2ccccc21,"inconclusive: 25.1 µM [inhibitor, single point]"
13,CCCCCCCc1c(O)nc(SCCN(C)C)[nH]c1=O,inactive
14,CSc1ccc(/C=N/NC(=O)c2ccccc2Cl)cc1,"inconclusive: 10 µM [inhibitor, partial curve]"
15,Cc1ccc(NC(=O)c2c(C)nc3sc(C(=O)Nc4ccc(F)cc4)c(N)c3c2-c2ccc(C)o2)c(C)c1,"inconclusive: 17.8 µM [inhibitor, single point]"
16,c1ccc(-c2n[nH]c(-c3ccccn3)n2)cc1,inactive
17,C/C=C(/CCC1NCCc2c1[nH]c1ccccc21)[Si](C)(C)C (configuration not stated),"inconclusive: 22.4 µM [inhibitor, single point]"
18,CCCN1CCc2c(sc(NC(=O)c3ccc(S(=O)(=O)N(C)c4ccccc4)cc3)c2C(=O)NC)C1,active: 22.4 µM
19,Oc1ccc(Br)cc1CNc1cccc2cccnc12,"inconclusive: 31.6 µM [inhibitor, partial curve, poor fit]"
20,CC1(C(=O)NCc2ccco2)Cc2c(-c3cccc(C(N)=O)c3)ccnc2O1 (configuration not stated),"inconclusive: 11.2 µM [inhibitor, partial curve]"
21,c1ccc(Cn2c(SCc3nc4ccccc4s3)nnc2-c2ccco2)cc1,"inconclusive: 17.8 µM [inhibitor, single point]"

row,SMILES,Potency
1,Cn1nnnc1Sc1ncnc2scc(-c3cc4ccccc4o3)c12,"inconclusive: 8.91 µM [inhibitor, partial curve]"
2,CCOC(=O)CNC(=O)CSc1ncnc2c1cnn2Cc1ccccc1,inactive
3,COc1cc(C(=O)O/N=C(\N)Cc2ccc([N+](=O)[O-])cc2)cc(OC)c1OC,"inconclusive: 22.4 µM [inhibitor, single point]"
4,CC(C)(C)C(=O)/C(=C/c1ccncc1)n1cncn1,"inconclusive: 35.5 µM [inhibitor, single point]"
5,CCc1ccc(NC(=O)CSc2nc3ccccc3c(=O)n2CCCC(=O)N2CCCC2)cc1,"inconclusive: 6.31 µM [inhibitor, single point]"
6,Nc1nn(-c2ccccc2)c(N)c1N=Nc1cccc(F)c1,"inconclusive: 1.41 µM [inhibitor, full curve, poor fit]"
7,COc1cccc(CNc2nc3cc(-c4ccc(C(=O)N5CCN(C)CC5)cc4)sc3c(=O)n2C)c1,"inconclusive: 22.4 µM [inhibitor, single point]"
8,Cc1ccc(NC(=O)Cn2c(=O)oc3cc(S(=O)(=O)N4CCCCC4)ccc32)c(Cl)c1,"inconclusive: 22.4 µM [inhibitor, single point]"
9,COc1ccc(Br)cc1C1Nc2cccc3cccc(c23)N1,inactive
10,COc1ccc(NC(=O)C2(C)Cc3c(-c4ccc5c(c4)OCO5)ccnc3O2)cc1 (configuration not stated),"inconclusive: 2.51 µM [inhibitor, full curve, poor fit]"
11,COC(=O)C1=C(C)N(Cc2ccco2)C(=O)/C1=C\c1ccc([N+](=O)[O-])cc1,"inconclusive: 22.4 µM [inhibitor, single point]"
12,COc1cc(-c2cnc3c(NC(C)=O)cc(-c4ccccc4CN(C)C)cn23)cc(OC)c1OC,"inconclusive: 7.94 µM [inhibitor, partial curve, poor fit]"
13,C[n+]1c(/C=C/c2ccc(O)cc2)ccc2ccccc21,inactive
14,COc1cc(C(=O)OCC(=O)Nc2sccc2C(N)=O)cc(OC)c1OC,"inconclusive: 2.24 µM [inhibitor, full curve, poor fit]"
15,COc1ccc(C(c2c(O)ccc3ccccc23)N2CCOCC2)c(OC)c1 (configuration not stated),"inconclusive: 35.5 µM [inhibitor, single point]"
16,Cc1ccn2c(Cc3ccccc3)c(-c3ccc(Br)cc3)nc2c1,"inconclusive: 11.2 µM [inhibitor, single point]"
17,COc1cc(S(=O)(=O)Nc2cc(C)cc(C)c2)ccc1F,"inconclusive: 22.4 µM [inhibitor, single point]"
18,COC(=O)c1c(CCl)noc1C(=O)NC(C)C,"inconclusive: 35.5 µM [inhibitor, single point]"
19,Nc1c(C(=O)Nc2ccccc2F)sc2nc(-c3ccco3)ccc12,"inconclusive: 25.1 µM [inhibitor, single point]"
20,Cc1cccc(C)c1Nc1nc2ccccc2nc1NS(=O)(=O)c1ccccc1,inactive
21,Cc1[nH]c2ccccc2c1[C@H]1[C@@H](CC#N)C1(C)C,inactive
